Experimental data: PubChem BioAssay (Tox21)
Where “and” joins values, the source holds several entries; their conditions need not be identical. Identical values can stand only once. Inconclusive means that the source gave no clear call. Such entries were picked first, then a sample of the others. Where the call is inconclusive, the potency comes from a doubtful curve fit. Where a structure was tested more than once in an assay, its records may differ in their call. Calls of active or inactive are those of the source. Calls come from the whole dose curve; as a rule, active = well fitted activation curve with a large enough effect in the repeat runs; inconclusive = weak or mixed curves; inactive = flat fitted curve, though single readings scatter.

Assay: A CellTox Green Cytotoxicity Assay to monitor cytotoxicity in HEK293 cells - 8 hour (AID 1224884); note: nearly all actives have a fitted effect of over 35% in size
Details: CellTox Green fluorescence; series mostly up to 76.8 µM
Summary of the method: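 Tox21 screen in HEK293: membrane-impermeant cyanine dye fluoresces on binding dead-cell DNA; compound pinned 5 h post-seeding, plates held at 37 C, signal read repeatedly through 40 h.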
Potency is the fitted concentration of half-maximal effect; tags give direction and shape of the fitted curve.

Compound | Potency
O=C(O)COc1nc(Cl)c(Cl)cc1Cl | inconclusive: 28.2 µM [activator, partial curve]
Oc1ccc(C2(c3ccc(O)cc3)CCCCC2)cc1 | inconclusive: 58.4 µM [activator, single point]
COc1cc(-c2ccc(N)c(OC)c2)ccc1N | inconclusive: 52.5 µM [activator, partial curve, poor fit]
Oc1cc(Cl)ccc1Oc1ccc(Cl)cc1Cl | active: 50.1 µM
ClC(Cl)=C(c1ccc(Cl)cc1)c1ccc(Cl)cc1 | inconclusive: 56.3 µM [activator, single point]
O=P(O)(O)CN(CP(=O)(O)O)CP(=O)(O)O | inconclusive: 54.9 µM [activator, single point]
c1ccc2c(c1)Sc1ccccc1N2CC1CN2CCC1CC2 (stereo not given) | inconclusive: 26.8 µM [activator, single point]
Nc1ccc(Cl)cc1N | inconclusive: 45.4 µM [activator, partial curve] and active: 24.5 µM
CCCCCCCc1ccc(O)cc1 | inconclusive: 49 µM [activator, partial curve, poor fit]
c1cc(OCC2CO2)ccc1Cc1ccc(OCC2CO2)cc1 (stereo not given) | inconclusive: 49.2 µM [activator, partial curve]
Clc1ccc(C(Cl)(Cl)Cl)cn1 | inconclusive: 21.9 µM [activator, partial curve]
CC1(C)CN=C(NN=C(/C=C/c2ccc(C(F)(F)F)cc2)/C=C/c2ccc(C(F)(F)F)cc2)NC1 | inconclusive: 54.9 µM [activator, single point]
O=[N+]([O-])c1cc([N+](=O)[O-])c2ccccc2c1 | inconclusive: 27.5 µM [activator, partial curve]
CC(=O)O[C@H]1CC[C@@]2(C)C(=CC[C@@H]3[C@@H]2CC[C@]2(C)C(=O)CC[C@@H]32)C1 | inconclusive: 49 µM [activator, partial curve, poor fit]
CCC[CH2][Sn]([Cl])([Cl])[CH2]CCC | active: 49 µM
